Measurements from PubChem BioAssay AID504332 (National Center for Advancing Translational Sciences (NCATS), 2011).
“And” between values parts separate entries of the source, which are not always exact repeats. Identical values can stand only once. Out of some 350,000 compounds screened, about 31,000 (8.9%) were called active. The shares of active, inactive and inconclusive entries below differ from those in the screen. Calls come from the whole dose curve; as a rule, active = well fitted inhibition curve with a large enough effect; inconclusive = small, poorly fitted or top-dose-only effect; inactive = no such curve, though single readings can be large or run the other way. Potencies of inconclusive entries are doubtful fits and often do not repeat.

Each compound was assayed against Histone-lysine N-methyltransferase EHMT2 (Homo sapiens) (UniProt Q96KQ7) (assay: qHTS Assay for Inhibitors of Histone Lysine Methyltransferase G9a). Conditions: G9a H3K9 monomethylation, AlphaScreen, 2 h; activity, negative = inhibition: at 59 µM (top of the series) unless noted.
Procedure, shortened: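 AlphaScreen read-out: biotin-H3K9 peptide (500 nM) methylation by 20 nM enzyme with 20 uM SAM, 2 h at room temperature after 15 min compound preincubation; anti-monomethyl H3K9 antibody plus donor/acceptor beads, 10 min dark.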
% is set by controls: 0 for no effect and ±100 for the full control effect; potency is the fitted concentration of half-maximal effect; tags give direction and shape of the fitted curve.
Note: nearly all actives have a fitted effect of over 75% in size.

Sequence of UniProt Q96KQ7 (Q96KQ7 whole entry, looked up): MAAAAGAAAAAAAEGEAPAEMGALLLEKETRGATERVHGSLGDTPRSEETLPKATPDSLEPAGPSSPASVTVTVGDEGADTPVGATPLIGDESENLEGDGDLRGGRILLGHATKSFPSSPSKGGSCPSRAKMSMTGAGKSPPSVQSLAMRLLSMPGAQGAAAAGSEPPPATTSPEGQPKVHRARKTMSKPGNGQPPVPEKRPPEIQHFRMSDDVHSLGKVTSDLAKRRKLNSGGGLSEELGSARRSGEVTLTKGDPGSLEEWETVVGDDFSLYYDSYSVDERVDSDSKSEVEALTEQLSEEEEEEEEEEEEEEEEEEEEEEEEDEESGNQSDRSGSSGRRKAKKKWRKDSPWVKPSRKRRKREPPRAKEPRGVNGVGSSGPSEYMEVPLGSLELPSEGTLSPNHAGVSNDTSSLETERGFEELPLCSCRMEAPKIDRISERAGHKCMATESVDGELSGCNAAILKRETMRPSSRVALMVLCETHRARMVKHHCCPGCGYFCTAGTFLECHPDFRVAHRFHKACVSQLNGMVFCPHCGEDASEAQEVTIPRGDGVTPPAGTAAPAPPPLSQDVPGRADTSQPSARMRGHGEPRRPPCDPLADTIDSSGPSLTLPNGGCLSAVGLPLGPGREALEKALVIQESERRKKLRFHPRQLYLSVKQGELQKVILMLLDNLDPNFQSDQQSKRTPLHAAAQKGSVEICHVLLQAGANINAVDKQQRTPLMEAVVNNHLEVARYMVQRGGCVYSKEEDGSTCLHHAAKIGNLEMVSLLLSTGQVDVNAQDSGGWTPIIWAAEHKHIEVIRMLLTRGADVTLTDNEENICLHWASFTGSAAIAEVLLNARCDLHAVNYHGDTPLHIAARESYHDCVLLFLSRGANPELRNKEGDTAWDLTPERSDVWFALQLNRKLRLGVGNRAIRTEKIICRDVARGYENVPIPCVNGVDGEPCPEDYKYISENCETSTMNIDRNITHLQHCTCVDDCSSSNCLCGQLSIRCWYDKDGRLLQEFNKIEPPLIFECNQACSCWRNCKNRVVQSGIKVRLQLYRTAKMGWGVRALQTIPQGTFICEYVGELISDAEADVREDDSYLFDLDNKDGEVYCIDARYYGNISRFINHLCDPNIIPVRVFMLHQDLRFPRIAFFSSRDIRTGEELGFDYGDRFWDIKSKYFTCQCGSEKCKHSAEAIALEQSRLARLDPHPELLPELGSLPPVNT

Row | Compound | activity, negative = inhibition | Potency
1 | O=C(O)CSCC(=O)c1ccccc1 | inactive: -44% | 
2 | COc1cccc(-c2nn3c(=O)cc(CN4CCN(S(=O)(=O)c5ccc(C)cc5)CC4)nc3s2)c1 | inactive: 0.891% | 
3 | CCC1(CC)NC(=O)N(CC(=O)Nc2ccc(S(=O)(=O)N3CCOCC3)cc2)C1=O | inactive: 3.72% [at 102 µM] | 
4 | O=C(Cc1ccccc1)Nc1sc2c(c1C(=O)Nc1ccccc1)CCCCC2 |  | inconclusive: 0.178 µM [inhibitor, full curve, poor fit]
5 | CCSc1nsc(NC(=O)Nc2cccc(F)c2)n1 |  | inconclusive: 100 µM [inhibitor, single point]
6 | O=C1c2ccccc2C(Nc2ccc(F)c(Cl)c2)N1c1ccccn1 (stereo not given) |  | inconclusive: 89.1 µM [inhibitor, single point]
7 | Cc1c(Nc2nc3ccccc3nc2NS(=O)(=O)c2cccs2)c(=O)n(-c2ccccc2)n1C | inconclusive: -67.5% [inhibitor] | 
8 | Cc1cc(C)c2c(c1)/C(=N/NS(=O)(=O)c1ccc(Br)cc1)CCC2 |  | inconclusive: 39.8 µM [inhibitor, single point]
9 | O=C(CC1(O)C(=O)N(CCc2ccccc2)c2ccc(Br)cc21)c1ccc(F)cc1 (stereo not given) | inactive: -27.3% | 
10 | CCc1ccc2c(c1)c(=O)c(S(=O)(=O)c1ccc(Cl)cc1)cn2CC | inactive: 1.94% | 
11 | CC(C)CNC(=O)CCc1c[nH]c2ccccc12 |  | inconclusive: 100 µM [inhibitor, partial curve, poor fit]
12 | COc1ccc(OCc2nc(N)nc(Nc3ccccc3)n2)cc1 |  | inconclusive: 44.7 µM [inhibitor, partial curve, poor fit]
13 | CC(C)CCNC(=O)NC(=O)COC(=O)c1cc(S(=O)(=O)N2CCOCC2)ccc1N1CCCCC1 |  | inconclusive: 0.126 µM [inhibitor, full curve, poor fit]
14 | Cc1cccc(N=Nc2c(C)nn(-c3ccccc3)c2N)c1C |  | active: 10 µM
15 | CCc1ccc(CNC(=O)c2cc3cc(S(=O)(=O)N4CCCCC4)ccc3n2C)cc1 |  | inconclusive: 39.8 µM [inhibitor, single point]
16 | COC(=O)CCNCCSc1nnc(-c2ccco2)n1Cc1ccccc1 |  | inconclusive: 3.98 µM [inhibitor, single point]
17 | O=C(Nc1ncn[nH]1)c1ccc([N+](=O)[O-])cc1[N+](=O)[O-] |  | inconclusive: 10 µM [inhibitor, partial curve, poor fit]
18 | Cc1ccc(S(=O)(=O)NCC2CCC(C(=O)NCc3ccc(F)cc3)CC2)cc1 (stereo not given) | inactive: 0.48% | 
19 | c1ccc(-c2nnc(OCCN3CCOCC3)c3ccccc23)cc1 |  | inconclusive: 89.1 µM [inhibitor, single point]
20 | COc1ccc(OCC(=O)Nc2cc(-c3ccccc3F)nn2-c2ccccc2)cc1 | inactive: 7.05% | 
21 | Cc1ccc(NC(=O)CSc2nc3ccccc3c3nc4ccccc4n23)cc1 | inactive: -12.9% [at 2.33 µM] | 
22 | COc1ccc(Nc2ccccc2)c(C)c1 |  | inconclusive: 28.2 µM [inhibitor, single point]
23 | COc1ccc(C(=O)N/C(=C\c2cn(S(=O)(=O)N(C)C)c3ccccc23)C(=O)N2CCOCC2)cc1 | inactive: 1.91% [at 102 µM] | 
24 | CC(C(=O)Nc1ccccc1)N(C)CCOc1ccc(Br)cc1 (stereo not given) | inactive: 98.8% [at 102 µM] | 

Row | Compound | activity, negative = inhibition | Potency
25 | Cc1sc2ncnc(N3CCC(C(=O)Nc4nnc(CC(C)C)s4)CC3)c2c1C |  | inconclusive: 17.8 µM [inhibitor, partial curve, poor fit]
26 | Cc1ccc2nc(NS(C)(=O)=O)sc2c1 | inactive: -31% [at 102 µM] | 
27 | CCN(CC)C(=O)CSc1nc(C)cc(-c2cccs2)c1C#N |  | active: 10 µM
28 | COc1ccc(-n2c(=O)c(-c3cn(C)c4ccccc34)nc3cnc(N4CCNCC4)nc32)cc1 | inactive: -5.23% [at 0.501 µM] | 
29 | COc1ccc(C)cc1NC(=O)CN(c1ccccc1)S(C)(=O)=O |  | inconclusive: 79.4 µM [inhibitor, single point]
30 | O=C(CCC(=O)N1CC2CCCN2c2ccccc21)NCc1cccc(Cl)c1 (stereo not given) |  | inconclusive: 20 µM [inhibitor, single point]
31 | O=c1[nH]c(Cc2ccccc2)nc2c1oc1ccccc12 |  | inconclusive: 0.708 µM [inhibitor, full curve, poor fit]
32 | CCOc1ccc(NS(=O)(=O)c2cccc(C(=O)N(C)Cc3ccco3)c2)cc1 | inactive: 7.01% [at 2.33 µM] | 
33 | O=Cc1ccc(O)c2ncccc12 |  | inconclusive: 56.2 µM [inhibitor, partial curve, poor fit]
34 | CCOc1ccc(C2c3[nH]c4ccccc4c3CCN2Cc2cn(CC)nc2C)cc1 (stereo not given) |  | inconclusive: 44.7 µM [inhibitor, partial curve]
35 | O=C(Nc1ccc(F)cc1F)C(Cc1ccccc1)N1Cc2ccccc2C1=O (stereo not given) | inactive: -17% | 
36 | COc1cccc(-n2c(-c3ccc(Cl)cc3)cc3c2CC(C)(C)CC3=O)c1 |  | inconclusive: 2.82 µM [inhibitor, full curve]
37 | Cc1cccc(NC2SC(=O)N(CC(=O)O)C2=O)c1 (stereo not given) |  | inconclusive: 39.8 µM [inhibitor, single point]
38 | CCOc1cc(/C=C2/SC(=S)N(Cc3ccccc3)C2=O)ccc1O |  | active: 44.7 µM
39 | COc1ccc(-n2c(SCC(=O)Nc3cccc(C(=O)O)c3)nnc2-c2ccco2)cc1 | inactive: -8.59% | 
40 | CC(C(=O)O)N1C(=O)/C(=C/C=C/c2ccco2)SC1=S (stereo not given) |  | active: 3.16 µM
41 | Cc1csc(SCC(=O)Nc2cc(S(=O)(=O)N(C)C)ccc2C)n1 |  | inconclusive: 4.47 µM [inhibitor, partial curve, poor fit]
42 | COC(=O)C1=C(C)Nc2ncnn2C1c1ccccn1 (stereo not given) |  | inconclusive: 0.794 µM [inhibitor, full curve, poor fit]
43 | COc1ccc(-c2n[nH]c(=S)n2/N=C/c2cccn2C)cc1 |  | active: 1.12 µM
44 | Cc1ccc(-c2nnc(SCC(=O)NC3CCCC3)nc2-c2ccc(C)cc2)cc1 | inactive: -32.6% | 
45 | Cc1cccn2c(CNCCSc3nccn3C)c(C(=O)N3CCCCC3)nc12 | inconclusive: -72% [inhibitor] | 
46 | CSC1=N/C(=C\c2ccc(C)s2)C(=O)S1 | inactive: 9.93% | 
47 | CCS(=O)(=O)N1CCC(C(=O)Oc2ccc(Cl)cc2)CC1 |  | inconclusive: 0.224 µM [inhibitor, partial curve, poor fit]
48 | CCCCn1nnc(NC(=S)NC(=O)c2ccc(-c3cccc(Cl)c3Cl)o2)n1 |  | active: 44.7 µM

Row | Compound | activity, negative = inhibition | Potency
49 | O=C(Cc1ccccc1F)NNC(=O)c1ccncc1 |  | inconclusive: 14.1 µM [inhibitor, partial curve, poor fit]
50 | N#C/C(=C(/O)c1ccco1)c1nc2ccccc2s1 |  | inconclusive: 39.8 µM [inhibitor, single point] and inconclusive: 79.4 µM [inhibitor, single point]
51 | O=C(CN1C(=O)NC2(CCCCC2)C1=O)N1CCN(S(=O)(=O)c2ccc(Cl)s2)CC1 |  | active: 17.8 µM
52 | CN1CCc2c(sc(NC(=O)CS(=O)(=O)c3ccccc3)c2C(N)=O)C1 |  | active: 50.1 µM
53 | CC(c1ccccn1)N(Cc1ccco1)C(=S)Nc1cccc(F)c1 (stereo not given) |  | inconclusive: 50.1 µM [inhibitor, partial curve, poor fit]
54 | CSCc1cc(N(C)c2ccccc2)nc(-c2ccccn2)n1 |  | inconclusive: 89.1 µM [inhibitor, single point]
55 | O=C(CSc1nc2ccc(Cl)cc2[nH]1)c1cccs1 |  | inconclusive: 2.51 µM [inhibitor, partial curve, poor fit]
56 | CCCC(c1nnnn1C1CCCCC1)N1CCN(C2CCCC2)CC1 (stereo not given) |  | inconclusive: 0.282 µM [inhibitor, full curve, poor fit]
57 | COc1cc(/C=C/C(=O)OC(C)C(=O)c2ccccc2)cc(OC)c1OC (stereo not given) |  | inconclusive: 44.7 µM [inhibitor, partial curve, poor fit]
58 | Cc1ccc(NC(=O)COC(=O)c2ccc(Cl)nc2)cc1S(=O)(=O)N1CCCCC1 | inactive: 22% [at 2.33 µM] | 
59 | Cc1sc2nc(SCC(=O)Nc3ccccc3F)[nH]c(=O)c2c1C |  | inconclusive: 39.8 µM [inhibitor, single point]
60 | CC(C)c1ccc(N2C(=O)CC(Sc3ncn[nH]3)C2=O)cc1 (stereo not given) |  | active: 1.26 µM
61 | COc1ccc(C(=O)Nc2ccc(/C(C)=N/NC(=O)c3ccncc3)cc2)cc1 |  | active: 22.4 µM
62 | CCN(CC)CCN1C(=O)C2C(C(=O)Nc3ccc(C(C)C)cc3)C3C=CC2(O3)C1C(=O)NC1CCCCC1 (stereo not given) |  | inconclusive: 89.1 µM [inhibitor, single point]
63 | COc1ccc(NC(=O)N2CCC(n3nnc4cc(C)ccc43)CC2)cc1 | inactive: -10.7% | 
64 | NC(=O)CC[C@H](NC(=O)c1ccc(F)cc1)C(=O)OCC(=O)NCc1ccc(F)cc1 | inactive: -2.71% [at 102 µM] | 
65 | O=C(Nc1sc2c(c1C(=O)O)CCC2)c1ccc(F)cc1 |  | active: 39.8 µM
66 | O=C(NNS(=O)(=O)c1ccc(C(F)(F)F)cc1)c1cnn(-c2ccccc2)c1C(F)(F)F |  | inconclusive: 28.2 µM [inhibitor, single point]
67 | O=C(COc1ccccc1)n1nc(-c2ccc(Cl)cc2)nc1NCc1ccco1 |  | inconclusive: 0.251 µM [inhibitor, full curve, poor fit]
68 | CCC1(c2ccccc2)NC(=O)N(CC(=O)Nc2ccc(N3CCCC3)cc2C)C1=O (stereo not given) |  | active: 1.78 µM
69 | Cc1ccc(N2CCC(N3CCN(C)C(CCO)C3)CC2)cc1 (stereo not given) |  | inconclusive: 89.1 µM [inhibitor, single point]
70 | Cc1cc(C)nc(NC(=O)NS(=O)(=O)Nc2ccc(Br)cn2)n1 |  | inconclusive: 89.1 µM [inhibitor, single point]
